Laboratory results as given in publication PMC5892938.
The list shows a part of the results. The source does not settle which construct or isoform was used.

These sequences were tested against GST-SBP-ILF3 (Homo sapiens) (UniProt Q12906) (assay: targeted RNA Bind-n-Seq). Conditions: RBNS binding buffer: 25 mM Tris pH 7.5, 150 mM KCl, 3 mM MgCl2, 0.1% Tween, 0.5 mg/mL BSA, 1 mM DTT; 27 nM protein, 750 pM RNA pool; temperature not stated; high values mean tight binding; sequences stand for … in GGGUAAAAGCGAGGUGAA…CGGGACAAGUAUUAUGGG.

Sequence	binding signal (log2 fold change)
UUUUUUUUUUGAGACGGGGUCUGUCUUCUG [tttttgagapaired]	0.884
GUUGUGUGUGUUGGAACCUAACACACGCAG [gtspaired]	-0.586
GUUGGUGGUGUUGGUCCCUAACACCGCCGA [gtspaired]	-0.369
UUUUUUUUUUGAGACGGGCUCCGUCUUCUA [tttttgagapaired]	0.521
UUUUUUUUUUGAGAGCGGAUCGUUCUCCGG [tttttgagapaired]	0.26
GUGGUUGGUGUUGGAUUCUAACACCAGCCG [gtspaired]	-1.16
UUUUUUUUUUGAGAUCGUAACGAUCUUCUA [tttttgagapaired]	-0.0225
GUUGUGUGUGUUGGUAUCUAACACACGCGA [gtspaired]	-0.667
GUGGUUGGUGUUGGUCUCUAACACCAAUCA [gtspaired]	-0.665
UUUUUUUUUUGAGACCGCUACGGUCUUCUG [tttttgagapaired]	0.375
UUUUUUUUUUGAGACGGGAGCUGUCUCCGG [tttttgagapaired]	0.815
UUUUUUUUUUGAGACUGACUCAGUCUCCAG [tttttgagapaired]	0.0847
UUUUUUUUUUGAGAUGGAAGCUAUCUCCUA [tttttgagapaired]	0.0438
GGUGGUUGUGUUGGAUCCUAACACAGCUAC [gtspaired]	-0.637
UUUUUUUUUUGAGACCGAAACGGUUUUCUA [tttttgagapaired]	0.143
UUUUUUUUUUGAGAGCGAGCCGCUCUCCAG [tttttgagapaired]	-0.0152
UUUUUUUUUUGAGAGCGUAUCGCUCUCCUG [tttttgagapaired]	0.0774
UUUUUUUUUUGAGAUCGACACGAUCUCCUG [tttttgagapaired]	0.249
UUUUUUUUUUGAGAUGGAGUCCAUUUCCUA [tttttgagapaired]	0.099
GUGUGUUGUGUUGGCUUCUAACACAACGCG [gtspaired]	-0.663
UUUUUUUUUUGAGAUGGUGUCCAUUUCCGG [tttttgagapaired]	1.08
GUUGUGUGUGUUGGUGUCUAACACACACGA [gtspaired]	-0.507
GUGUGUGGUGUUGGCCUCUAACACCGCGCG [gtspaired]	-0.712
UUUUUUUUUUGAGACGGAUGCCGUCUCCUG [tttttgagapaired]	0.575
UUUUUUUUUUGAGACUGAGACAGUCUCCUG [tttttgagapaired]	0.425
GUUGUGUGUGUUGGCGCCUAACACACGCGA [gtspaired]	-0.796

Sequence	binding signal (log2 fold change)
UUUUUUUUUUGAGAUCGUAGCGAUCUCCAG [tttttgagapaired]	0.203
UUUUUUUUUUGAGAGCGGCACGUUCUCCAG [tttttgagapaired]	0.481
UUUUUUUUUUGAGAGGGCGACCCUCUUCUA [tttttgagapaired]	0.446
UUUUUUUUUUGAGACGGUAACCGUCUUCUA [tttttgagapaired]	0.186
GUUGUGUGUGUUGGCCUCUAACACACGCAG [gtspaired]	-0.779
GGUGGUGGUGUUGGAGCCUAACACCAUCGC [gtspaired]	-0.722
GUGUUGUGUGUUGGCGCCUAACACACAACG [gtspaired]	-0.255
UUUUUUUUUUGAGAAGGCUCCCUUCUCCAG [tttttgagapaired]	0.0853
GUGUUGUGUGUUGGACCCUAACACACAGCG [gtspaired]	-0.232
UUUUUUUUUUGAGAGCGGCGCGCUCUUCUA [tttttgagapaired]	0.481
UUUUUUUUUUGAGACUGCGGCAGUCUCCGG [tttttgagapaired]	0.558
UUUUUUUUUUGAGACUGGCACAGUCUCCUA [tttttgagapaired]	0.526
GUGUGUGGUGUUGGCUCCUAACACCACGCG [gtspaired]	-0.169
UUUUUUUUUUGAGAGGGACACCCUCUCCAG [tttttgagapaired]	0.402
UUUUUUUUUUGAGACCGAUUCGGUCUCCUA [tttttgagapaired]	-0.0663
UUUUUUUUUUGAGACGGCGGCCGUCUUCUG [tttttgagapaired]	0.975
UUUUUUUUUUGAGAUGGCAGCCAUCUCCUG [tttttgagapaired]	0.68
UUUUUUUUUUGAGAGCGACACGUUCUCCUG [tttttgagapaired]	0.344
UUUUUUUUUUGAGACUGCGGCAGUUUCCUA [tttttgagapaired]	0.649
GGUUGUGGUGUUGGUUCCUAACACCGCAGC [gtspaired]	-0.753
UUUUUUUUUUGAGAGGGUAACCCUCUUCUG [tttttgagapaired]	0.222
UUUUUUUUUUGAGAGGGUACCCCUCUCCUA [tttttgagapaired]	0.222
UUUUUUUUUUGAGACUGCAUCAGUCUUCUA [tttttgagapaired]	-0.0925
UUCCUCUCUCCUCCACGGGAGGGGGGAGGA [ctspaired]	-0.362
GUGGUUGGUGUUGGCGUCUAACACCAGCCA [gtspaired]	-0.455
GGUGGUGGUGUUGGUGCCUAACACCAUCGC [gtspaired]	-0.76

Sequence	binding signal (log2 fold change)
GGUUGUUGUGUUGGUCUCUAACACAGCAAC [gtspaired]	-0.798
UUUUUUUUUUGAGAUGGUAUCCAUCUUCUA [tttttgagapaired]	-0.0531
GGUGGUUGUGUUGGCGCCUAACACAGCCGC [gtspaired]	-0.475
UUUUUUUUUUGAGAGGGACUCCCUCUUCUA [tttttgagapaired]	0.199
UUUUUUUUUUGAGACGGUCUCCGUCUCCUG [tttttgagapaired]	0.73
GUUGGUGGUGUUGGCAUCUAACACCGCCAG [gtspaired]	-0.566
UUUUUUUUUUGAGAUCGGUACGAUCUCCAG [tttttgagapaired]	0.431
UUUUUUUUUUGAGAUGGUGACUAUCUCCUA [tttttgagapaired]	0.357
UUUUUUUUUUGAGAUCGAAACGAUUUCCUA [tttttgagapaired]	-0.11
UUUUUUUUUUGAGAGUGUAGCAUUCUCCAG [tttttgagapaired]	0.174
UUUUUUUUUUGAGAUCGGUACGAUCUCCGG [tttttgagapaired]	0.566
GUGGUGUGUGUUGGAGCCUAACACACACUA [gtspaired]	-0.416
UUUUUUUUUUGAGAGCGUAGCGCUCUCCGG [tttttgagapaired]	0.0541
UUUUUUUUUUGAGACUGAAUCAGUUUUCUA [tttttgagapaired]	-0.477
UUCCUUCUUCCUCCUGGGGAGGGAGAGGGA [ctspaired]	-0.464
UUUUUUUUUUGAGACCGGGCCGGUCUUCUG [tttttgagapaired]	0.747
UUUUUUUUUUGAGAUGGUGUCCGUCUCCUA [tttttgagapaired]	0.82
UUUUUUUUUUGAGAUCGAAUCGAUCUCCGG [tttttgagapaired]	0.178
UUUUUUUUUUGAGAACGAGACGUUCUUCUA [tttttgagapaired]	0.325
GUGUGGUGUGUUGGCGUCUAACACACUACA [gtspaired]	-0.744
UUUUUUUUUUGAGAGCGAAACGCUCUCCUG [tttttgagapaired]	0.324
UUUUUUUUUUGAGACUGAUUCAGUCUUCUA [tttttgagapaired]	-0.307
GUGUGUUGUGUUGGUACCUAACACAACGCG [gtspaired]	-0.53
UUUUUUUUUUGAGACUGUAGCAGUUUCCAG [tttttgagapaired]	0.689
UUUUUUUUUUGAGACUGCAUCAGUCUCCGG [tttttgagapaired]	0.235
GUGUGUGGUGUUGGACCCUAACACCGCGCA [gtspaired]	-0.141

Sequence	binding signal (log2 fold change)
UUUUUUUUUUGAGACCGCUACGGUCUUCUA [tttttgagapaired]	0.701
GGUGGUUGUGUUGGUACCUAACACAAUCGC [gtspaired]	-0.759
UUUUUUUUUUGAGAGGGAGUCCCUCUCCAG [tttttgagapaired]	0.673
UUUUUUUUUUGAGACUGCAUCAGUCUUCUG [tttttgagapaired]	0.0595
UUUUUUUUUUGAGACCGAAACGGUCUCCUG [tttttgagapaired]	0.688
UUUUUUUUUUGAGAGCGGGUCGCUCUUCUA [tttttgagapaired]	0.564
UUUUUUUUUUGAGACGGAUCCCGUCUCCAG [tttttgagapaired]	0.76
GUGUUGUGUGUUGGUGCCUAACACACAGCG [gtspaired]	-0.739
UUUUUUUUUUGAGAUGGCUACCAUCUCCUG [tttttgagapaired]	0.596
UUUUUUUUUUGAGAUGGCGACUAUCUCCAG [tttttgagapaired]	0.511
UUUUUUUUUUGAGACCGAUCCGGUCUCCAG [tttttgagapaired]	0.754
UUUUUUUUUUGAGAUGGAUGCCGUCUCCGG [tttttgagapaired]	0.595
UUUUUUUUUUGAGACCGACUCGGUCUCCGG [tttttgagapaired]	0.441
GUGUGUGGUGUUGGCCCCUAACACCAUACA [gtspaired]	0.0429
UUUUUUUUUUGAGAGCGAAACGUUCUUCUA [tttttgagapaired]	0.0287
GUUGGUGGUGUUGGCCUCUAACACCGCCGA [gtspaired]	-0.506
UUUUUUUUUUGAGACGGGAUCCGUCUUCUG [tttttgagapaired]	0.379
UUUUUUUUUUGAGAGGGCACCCCUCUCCUA [tttttgagapaired]	0.504
UUUUUUUUUUGAGACGGUUCCCGUCUCCUG [tttttgagapaired]	0.716
UUUUUUUUUUGAGAGUGAUCCAUUCUCCAG [tttttgagapaired]	-0.023
UUUUUUUUUUGAGAGGGCUACCCUUUCCAG [tttttgagapaired]	0.499
UUUUUUUUUUGAGAGGGCCGCCCUCUCCGG [tttttgagapaired]	1.14
UUUUUUUUUUGAGAGGGAAACCCUCUUCUA [tttttgagapaired]	-0.191
GGUGGUGGUGUUGGCCUCUAACACCGCCGC [gtspaired]	-0.717
